For 67 sequences, switch fluorescence ratio results are on record in the supplement of paper PMC10126150.

Sequences with one replicate were seen in a single cluster, so their values are uncertain.
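Also: ATP exposure 15 min at 22 °C before imaging.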

The test system of this series is ATP. In words: switch fluorescence ratio, 500 uM ATP over buffer (Cy3 cluster intensity, sum of 5 cycles each) (fold (ratio)); higher = stronger signal-on switching upon ATP binding; sequences stand for … in TCGTCGGCAGCGTCAGATGTGTATAAGAGACAGTTTTTTTTTTTTTTTTTTTTTTTTT…TC. To be noted: aptamer strand: ATP DNA aptamer (quencher-CACCTGGGGGAGTATTGCGGAGGAAGG + anchor), 100 nM annealed; ATP concentration: 500 uM; one replicate. Put shortly:
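Five buffer/ATP imaging cycles were run on Cy3-labelled switching-strand clusters on a modified Illumina MiSeq flow-cell, with NaOH stripping and re-annealing between cycles. In each cycle, clusters annealed to 100 nM quencher-labelled ATP aptamer were imaged in selection buffer, then after 15 min with 500 uM ATP at 22 °C. Per cluster, the fluorescence ratio is summed target-cycle over summed buffer-cycle Cy3 intensity, averaged per switch-domain sequence. Only clusters within 100-1000 RFU were kept.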
Consider ATGCGTTATG, for which the switch fluorescence ratio came to 0.99. With TGCCAACAGG the figure was 1.09; with TAGTCCTATC, 1.02; with ACGGA, 1.03.

On to GCGATCGAAA, for which the switch fluorescence ratio came out at 1.05. With GGCCGCTGGG the figure was 1.02; with GACACTGGAT, 0.976; with TGCTTGGACA, 0.969. With TTCACCGATA the figure was 1.06; with CTTGCGGGAA, 0.988. With TTGCAGTACC the figure was 1.86; with ATGATCTGTG, 0.949; with CTAGTTGCAC, 0.982. Regarding CCTCCTGGGG, the switch fluorescence ratio stood at 1.75. On to CATGATGTAT, for which the switch fluorescence ratio is 0.969. In the case of GTAACGGAAA, the switch fluorescence ratio was 0.96.

As for AAACTTTCA, the switch fluorescence ratio was 1.32. With ATTTAAATAA the figure was 0.955.

Take TGGTATATAC: the switch fluorescence ratio was 1.06.

On to CTCTACCGCC, for which the switch fluorescence ratio amounted to 1.53. Then GACATTTATG, with 1.09. For TCCAAATACC, the switch fluorescence ratio came to 1.16.

CCTTTGTAGT: the switch fluorescence ratio stood at 1.13.

Regarding CCTTGGTCGG, the switch fluorescence ratio amounted to 0.946.

Take TGACCCAGGT: the switch fluorescence ratio amounted to 2.56. With GTATTGCGAC the figure was 0.978; with ACACTGGCTA, 1.04; with TAATATTGGT, 0.97.

In the case of GGATGGTTCT, the switch fluorescence ratio is 0.998. Then GGATTGCATG, with 1.01; and CGTGGTAGAT, with 1.07. With TTTGTAAAG the figure was 1.01; with ATTGGAGCAC, 1.13. With ACCAGACCCA the figure was 1.13.

For CTTTAATATA, the switch fluorescence ratio is 1.01. With GCTAGGTACT the figure was 1.04; with GATATAGAAG, 0.997. With ACTTGGTAGA the figure was 0.969; with CACCTGCGAT, 2.33. For GACGGGGTCG, the switch fluorescence ratio was 1.01. Then GTGAGCTCGA, with 1.01; and TTTTACGAAT, with 1.04. Consider GCGCTAATC, for which the switch fluorescence ratio amounted to 1.83. Then GTCTTATAGG, with 0.956. With TGCCAGCACT the figure was 1.3; with TGTAGTATAA, 0.993. With CGAGACCGTC the figure was 0.893; with GGGCCTTGGA, 1.04.

In the case of AATTATGTAT, the switch fluorescence ratio was found to be 1.05. Then CGTTCCTCAT, with 1.25; and CCAGGCGCTT, with 1.15; and ATTTATCCAT, with 1.03. Consider TTGATGGGGG, for which the switch fluorescence ratio was found to be 0.99.

In the case of ACAGAGGACA, the switch fluorescence ratio came to 0.984. Then TTTTCCGGCA, with 1.36; and GCTCTTGGTG, with 1.08; and AGGGGGCACG, with 0.991. With TTGTTACAAA the figure was 0.941. In the case of CCATTCTACT, the switch fluorescence ratio worked out at 0.993.

As for AGGGGACGTG, the switch fluorescence ratio turned out to be 0.968.

As for CTAAGGGG, the switch fluorescence ratio stood at 0.987. Then AACTCGGGGC, with 0.944. Then AATCGTTGGT, with 0.964. Take TTATGACTCG: the switch fluorescence ratio worked out at 0.933. With ACTGCACGTA the figure was 1.23; with AGATCCGCGT, 1.18. With CTTACCTCAT the figure was 1.07.
